Among the data in patent US20180291103A1 (SUZHOU ALPHAMAB, published 2018) are EC50 values, retold here.

The assay deals with T1, PDL1-Chis protein (Homo sapiens (Human), UniProt Q9NZQ7 fragment).
T1 construct: Entry includes the C-terminal His tag; transiently expressed in HEK293
The experiment in a line: ELISA; PDL1-Chis coated at 0.5 µg/well, anti-human IgG-Fc HRP. (ELISA stands for enzyme-linked immunosorbent assay.)

T1 sequence (Q9NZQ7 other isoform, or with tags, fused parts or gaps limits assumed): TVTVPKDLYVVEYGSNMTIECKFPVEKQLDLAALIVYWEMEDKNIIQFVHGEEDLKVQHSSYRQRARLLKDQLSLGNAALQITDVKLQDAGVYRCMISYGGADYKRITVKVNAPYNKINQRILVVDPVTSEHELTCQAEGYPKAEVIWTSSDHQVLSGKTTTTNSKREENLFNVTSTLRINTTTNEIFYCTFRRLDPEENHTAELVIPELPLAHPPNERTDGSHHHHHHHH

B1: hu56V1-Fc (PDL1 single domain antibody Fc fusion protein) (Fc fusion)
chain: QVQLVESGGGLVQPGGSLRLSCAASGKMSSRRCMAWFRQAPGKERERVAKLLTTSGSTYLADSVKGRFTISRDNSKNTVYLQMNSLRAEDTAVYYCAADSFEDPTCTLVTSSGAFQYWGQGTLVTVSS[sequence of human IgG1 Fc not given]
notes: VHH Hu56V1 fused to human IgG1-Fc; Biotinylated in the FcRn assay
Molecule B1 yielded an EC50 of about 0.15 µg/mL.

B2: hu56V5-Fc (PDL1 single domain antibody Fc fusion protein) (Fc fusion)
chain: QVQLVESGGGLVQPGGSLRLSCAASGKMSSRRCMAWFRQAPGKERERVAKLLTTSGSTYLADSVKGRFTISRDNSKNTVYLQMNSLKAEDTAVYYCAADSFEDPTCTLVTSSGAFQYWGQGTLVTVSS[sequence of human IgG1 Fc not given]
notes: VHH Hu56V5 fused to human IgG1-Fc; homodimer by the Fc
B2 displayed an EC50 of about 0.15 µg/mL.

B3: hu56V2-Fc (PDL1 single domain antibody Fc fusion protein) (Fc fusion)
chain: QVQLVESGGGLVQPGGSLRLSCAASGFTFSRRCMAWFRQAPGKERERVAKLLTTSGSTYLADSVKGRFTISRDNSKNTVYLQMNSLRAEDTAVYYCAADSFEDPTCTLVTSSGAFQYWGQGTLVTVSS[sequence of human IgG1 Fc not given]
notes: VHH Hu56V2 fused to human IgG1-Fc; homodimer by the Fc; Biotinylated in the FcRn assay; also called PDL1-hu56V2-Fc; KN035
The molecule B3 gave an EC50 of about 0.15 µg/mL.

As a reminder, the EC50 is the concentration at which the effect is half-maximal. The low end stands for greater potency, the high end for weaker potency.
